Experimental data published in patent US5773569A (Affymax Technologies N.V., priority 1995, dated 1998).
Part of at least one peptide drawing is inferred or uncertain, most often the ends. Residues, ends and D or L forms follow the SMILES beside them.

Molecular target: T1, extracellular domain of the human erythropoietin receptor (EPO binding protein, EBP) (Homo sapiens, UniProt P19235)
T1 construct: made in house
T1 sequence (P19235 25-250 limits assumed): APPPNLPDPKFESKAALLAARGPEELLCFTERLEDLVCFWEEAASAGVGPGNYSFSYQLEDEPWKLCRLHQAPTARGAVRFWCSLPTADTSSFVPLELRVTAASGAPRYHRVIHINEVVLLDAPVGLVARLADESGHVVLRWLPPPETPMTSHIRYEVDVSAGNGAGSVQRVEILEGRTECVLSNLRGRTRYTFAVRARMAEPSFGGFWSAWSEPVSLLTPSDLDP
Assay: Immobilized EBP based [125I]EPO competition binding assay
Conditions: IC50 relative to RWJ61233 (IC50 5 μM); cyclic peptides, COOH terminal amides
Protocol: The iodoacetyl activation chemistry of Sufolink beads (Pierce Chemical Co, Rockford, Ill.) is specific for free thiols and assures that the linkage is not easily reversible. EBP-Sulfolink beads were made as follows: SulfoLink gel suspension (10 ml) was mixed with coupling buffer (40 ml: 50 mM Tris, pH 8.3, 5 mM EDTA) and the gel was allowed to settle. The supernatant was removed and the EBP (0.3-1 mg/ml in coupling buffer) to be bound was added directly to the washed beads. The mixture was rocked gently for 30 minutes at room temperature, and the beads were allowed to settle for 1 hour at room temperature. The supernatant was removed and retained, and the beads were washed twice with 20 ml of coupling buffer. The washes were recovered as well. The beads were then treated with 20 ml of 0.05M cysteine for 30 minutes at room temperature to block unbound sites. Finally, the beads were washed with 50 ml of 1M NaCl, then with 30 ml of PBS, and resuspended in 20 ml of PBS and stored at 4° C. for later use. The amount of EBP which was covalently bound to the beads was determined by comparing the OD280 of the original EBP solution to the total OD280 recovered in the reaction supernatant and the two 20 ml washes.
Binding assays were initiated by the addition of EBP beads (50 μl) to individual reaction tubes. […] Each reaction volume was brought to 500 μl with binding buffer (PBS/0.2% BSA). The tubes were incubated for five hours (a time period experimentally determined as adequate for the establishment of equilibrium) at room temperature with gentle rocking. After five hours, each reaction mixture was passed through a 1 ml pipet tip plugged with glass wool.
Competitive binding analysis assays of candidate peptides were performed as outlined below. Individual peptides were dissolved in DMSO to prepare a stock solution of 1 mM. […] Initial assay points with no added peptide were included in each assay to determine total binding. Binding mixtures were incubated overnight at room temperature with gentle rocking. The beads were then collected using Micro-columns (Isolab, Inc., Akron, Ohio) and washed with 3 mL of wash buffer. The columns containing the washed beads were placed in 12×75 mm glass tubes and bound radioactivity levels were determined using a gamma counter.

Row | SMILES | Relative Binding
1 | CC(C)[C@@H]1NC(=O)[C@H](Cc2c[nH]c3ccccc23)NC(=O)[C@H]([C@@H](C)O)NC(=O)[C@H](C)NC(=O)[C@@H]2CCCN2C(=O)CNC(=O)[C@H](Cc2ccccc2)NC(=O)[C@H](Cc2c[nH]cn2)NC(=O)[C@@H](NC(=O)[C@H](CO)NC(=O)[C@H](Cc2ccc(O)cc2)NC(=O)[C@@H](NC(=O)CNC(=O)CN)[C@@H](C)O)CSSC[C@@H](C(=O)N[C@@H](CCCCN)C(=O)N2CCC[C@H]2C(=O)N[C@@H](CCC(N)=O)C(=O)NCC(=O)NCC(N)=O)NC1=O [RWJ 61314] (HELM PEPTIDE1{G.G.T.Y.S.C.H.F.G.P.A.T.W.V.C.K.P.Q.G.G.[am]}$PEPTIDE1,PEPTIDE1,6:R3-15:R3$$$V2.0) | 1
2 | CC(C)C[C@@H]1NC(=O)[C@@H]2CCCN2C(=O)CNC(=O)[C@H](Cc2ccccc2)NC(=O)[C@H](Cc2c[nH]cn2)NC(=O)[C@@H](NC(=O)[C@H](CO)NC(=O)[C@H](Cc2cc(Br)c(O)c(Br)c2)NC(=O)[C@@H](NC(=O)CNC(=O)CN)[C@@H](C)O)CSSC[C@@H](C(=O)N[C@@H](CCCCN)C(=O)N2CCC[C@H]2C(=O)N[C@@H](CCC(N)=O)C(=O)NCC(=O)NCC(N)=O)NC(=O)[C@H](C(C)C)NC(=O)[C@H](Cc2c[nH]c3ccccc23)NC(=O)[C@H]([C@@H](C)O)NC1=O [RWJ 62021, GGTXSCHFGPLTWVCKPQGG] (HELM PEPTIDE1{G.G.T.[O=C([C@H](Cc1cc(Br)c(O)c(Br)c1)N[*:1])[*:2]].S.C.H.F.G.P.L.T.W.V.C.K.P.Q.G.G.[am]}$PEPTIDE1,PEPTIDE1,6:R3-15:R3$$$V2.0) | 30
3 | CC(C)C[C@@H]1NC(=O)[C@@H]2CCCN2C(=O)CNC(=O)[C@H](Cc2ccccc2)NC(=O)[C@H](Cc2c[nH]cn2)NC(=O)[C@@H](NC(=O)[C@H](CO)NC(=O)[C@@H](N)Cc2ccc(O)cc2)CSSC[C@@H](C(=O)N[C@@H](CCCCN)C(N)=O)NC(=O)[C@H](C(C)C)NC(=O)[C@H](Cc2c[nH]c3ccccc23)NC(=O)[C@H]([C@@H](C)O)NC1=O [RWJ 61279] (HELM PEPTIDE1{Y.S.C.H.F.G.P.L.T.W.V.C.K.[am]}$PEPTIDE1,PEPTIDE1,3:R3-12:R3$$$V2.0) | 14
4 | CC[C@H](C)[C@@H]1NC(=O)[C@@H]2CCCN2C(=O)CNC(=O)[C@H](Cc2ccccc2)NC(=O)[C@H](CCCNC(=N)N)NC(=O)[C@@H](NC(=O)[C@H](Cc2ccc(O)cc2)NC(=O)[C@H](Cc2ccc(O)cc2)NC(=O)[C@H](CC(N)=O)NC(=O)CNC(=O)CN)CSSC[C@@H](C(=O)N[C@@H](Cc2c[nH]cn2)C(=O)N2CCC[C@H]2C(=O)N[C@H](C(=O)NCC(=O)NCC(N)=O)[C@@H](C)O)NC(=O)[C@H](CCC(=O)O)NC(=O)[C@H](Cc2ccccc2)NC(=O)[C@H]([C@@H](C)O)NC1=O [RWJ 61717] (HELM PEPTIDE1{G.G.N.Y.Y.C.R.F.G.P.I.T.F.E.C.H.P.T.G.G.[am]}$PEPTIDE1,PEPTIDE1,6:R3-15:R3$$$V2.0) | > 100
5 | CC(C)C[C@@H]1NC(=O)[C@@H]2CCCN2C(=O)CNC(=O)[C@H](Cc2ccccc2)NC(=O)[C@@H](NC(=O)[C@H](CO)NC(=O)[C@H](Cc2ccc(O)cc2)NC(=O)[C@@H](NC(=O)CNC(=O)CN)[C@@H](C)O)CSSC[C@@H](C(=O)N[C@@H](CCCCN)C(=O)N2CCC[C@H]2C(=O)N[C@@H](CCC(N)=O)C(=O)NCC(=O)NCC(N)=O)NC(=O)[C@H](C(C)C)NC(=O)[C@H](Cc2c[nH]c3ccccc23)NC(=O)[C@H]([C@@H](C)O)NC1=O [RWJ 61530] (HELM PEPTIDE1{G.G.T.Y.S.C.F.G.P.L.T.W.V.C.K.P.Q.G.G.[am]}$PEPTIDE1,PEPTIDE1,6:R3-14:R3$$$V2.0) | 40
6 | CSCC[C@@H]1NC(=O)[C@H](CCCNC(=N)N)NC(=O)[C@@H](NC(=O)[C@H](CC(C)C)NC(=O)[C@H](Cc2ccc(O)cc2)NC(=O)[C@H](CCC(=O)O)NC(=O)CNC(=O)CN)CSSC[C@@H](C(=O)N[C@H](C(=O)N2CCC[C@H]2C(=O)N[C@H](C(=O)NCC(=O)NCC(N)=O)C(C)C)[C@@H](C)O)NC(=O)[C@H](C(C)C)NC(=O)[C@H](Cc2c[nH]c3ccccc23)NC(=O)[C@H]([C@@H](C)O)NC(=O)[C@H](CCSC)NC(=O)[C@@H]2CCCN2C(=O)CNC1=O [RWJ 61719] (HELM PEPTIDE1{G.G.E.Y.L.C.R.M.G.P.M.T.W.V.C.T.P.V.G.G.[am]}$PEPTIDE1,PEPTIDE1,6:R3-15:R3$$$V2.0) | 8
7 | CC(C)C[C@@H]1NC(=O)[C@H](C)NC(=O)CNC(=O)[C@H](Cc2ccccc2)NC(=O)[C@H](Cc2c[nH]cn2)NC(=O)[C@@H](NC(=O)[C@H](CO)NC(=O)[C@@H](N)Cc2ccc(O)cc2)CSSC[C@@H](C(=O)N[C@@H](CCCCN)C(N)=O)NC(=O)[C@H](C(C)C)NC(=O)[C@H](Cc2c[nH]c3ccccc23)NC(=O)[C@H]([C@@H](C)O)NC1=O [RWJ 61895] (HELM PEPTIDE1{Y.S.C.H.F.G.A.L.T.W.V.C.K.[am]}$PEPTIDE1,PEPTIDE1,3:R3-12:R3$$$V2.0) | 32
8 | CC(C)C[C@@H]1NC(=O)[C@@H]2CCCN2C(=O)CNC(=O)[C@H](Cc2ccccc2)NC(=O)[C@H](Cc2c[nH]cn2)NC(=O)[C@@H](NC(=O)[C@H](CO)NC(=O)[C@@H](NC(=O)[C@@H](NC(=O)CNC(=O)CN)[C@@H](C)O)[C@@H](C)O)CSSC[C@@H](C(=O)N[C@@H](CCCCN)C(=O)N2CCC[C@H]2C(=O)N[C@@H](CCC(N)=O)C(=O)NCC(=O)NCC(N)=O)NC(=O)[C@H](C(C)C)NC(=O)[C@H](Cc2c[nH]c3ccccc23)NC(=O)[C@H]([C@@H](C)O)NC1=O [RWJ 61520] (HELM PEPTIDE1{G.G.T.T.S.C.H.F.G.P.L.T.W.V.C.K.P.Q.G.G.[am]}$PEPTIDE1,PEPTIDE1,6:R3-15:R3$$$V2.0) | 24
9 | CC(C)C[C@@H]1NC(=O)[C@@H]2CCCN2C(=O)CNC(=O)[C@H](Cc2ccccc2)NC(=O)[C@H](Cc2c[nH]cn2)NC(=O)[C@@H](NC(=O)[C@H](CO)NC(=O)[C@H](Cc2ccc(O)cc2)NC(=O)[C@H](CCCCN)NC(=O)[C@H](CCCNC(=N)N)NC(=O)CNC(=O)[C@@H](N)CC(C)C)CSSC[C@@H](C(=O)N[C@@H](CCC(N)=O)C(=O)N2CCC[C@H]2C(=O)N[C@@H](C)C(=O)N[C@@H](CCCCN)C(=O)N[C@@H](CCCCN)C(=O)N[C@@H](CC(=O)O)C(N)=O)NC(=O)[C@H](C(C)C)NC(=O)[C@H](Cc2c[nH]c3ccccc23)NC(=O)[C@H]([C@@H](C)O)NC1=O [RWJ 61757] (HELM PEPTIDE1{L.G.R.K.Y.S.C.H.F.G.P.L.T.W.V.C.Q.P.A.K.K.D.[am]}$PEPTIDE1,PEPTIDE1,7:R3-16:R3$$$V2.0) | 1
10 | CC(C)C[C@@H]1NC(=O)[C@H](C)NC(=O)CNC(=O)[C@H](Cc2ccccc2)NC(=O)[C@H](Cc2c[nH]cn2)NC(=O)[C@@H](NC(=O)[C@H](CO)NC(=O)[C@H](Cc2ccc(O)cc2)NC(=O)[C@@H](NC(=O)CNC(=O)CN)[C@@H](C)O)CSSC[C@@H](C(=O)N[C@@H](CCCCN)C(=O)N2CCC[C@H]2C(=O)N[C@@H](CCC(N)=O)C(=O)NCC(=O)NCC(N)=O)NC(=O)[C@H](C(C)C)NC(=O)[C@H](Cc2c[nH]c3ccccc23)NC(=O)[C@H]([C@@H](C)O)NC1=O [RWJ 61277] (HELM PEPTIDE1{G.G.T.Y.S.C.H.F.G.A.L.T.W.V.C.K.P.Q.G.G.[am]}$PEPTIDE1,PEPTIDE1,6:R3-15:R3$$$V2.0) | 2
11 | CC(C)C[C@@H]1NC(=O)[C@@H]2CCCN2C(=O)CNC(=O)[C@H](Cc2ccccc2)NC(=O)[C@H](Cc2c[nH]cn2)NC(=O)[C@@H](NC(=O)[C@H](CO)NC(=O)[C@H](Cc2ccc(O)cc2)NC(=O)[C@@H](N)[C@@H](C)O)CSSC[C@@H](C(=O)N[C@@H](CCCCN)C(=O)N2CCC[C@H]2C(=O)N[C@@H](CCC(N)=O)C(=O)NCC(=O)NCC(N)=O)NC(=O)[C@H](C(C)C)NC(=O)[C@H](Cc2c[nH]c3ccccc23)NC(=O)[C@H]([C@@H](C)O)NC1=O [RWJ 61597] (HELM PEPTIDE1{T.Y.S.C.H.F.G.P.L.T.W.V.C.K.P.Q.G.G.[am]}$PEPTIDE1,PEPTIDE1,4:R3-13:R3$$$V2.0) | 8
12 | CC(C)C[C@@H]1NC(=O)[C@@H]2CCCN2C(=O)CNC(=O)[C@H](Cc2ccccc2)NC(=O)[C@H](Cc2c[nH]cn2)NC(=O)[C@@H](NC(=O)[C@@H](N)CO)CSSC[C@@H](C(=O)N[C@@H](CCCCN)C(N)=O)NC(=O)[C@H](C(C)C)NC(=O)[C@H](Cc2c[nH]c3ccccc23)NC(=O)[C@H]([C@@H](C)O)NC1=O [RWJ 61177] (HELM PEPTIDE1{S.C.H.F.G.P.L.T.W.V.C.K.[am]}$PEPTIDE1,PEPTIDE1,2:R3-11:R3$$$V2.0) | 18
